The values that follow come from paper PMC3930858.

The target in assay [1] is T1, SnRK1.1/AKIN10 (Arabidopsis thaliana) (UniProt Q38997).
T1 sequence: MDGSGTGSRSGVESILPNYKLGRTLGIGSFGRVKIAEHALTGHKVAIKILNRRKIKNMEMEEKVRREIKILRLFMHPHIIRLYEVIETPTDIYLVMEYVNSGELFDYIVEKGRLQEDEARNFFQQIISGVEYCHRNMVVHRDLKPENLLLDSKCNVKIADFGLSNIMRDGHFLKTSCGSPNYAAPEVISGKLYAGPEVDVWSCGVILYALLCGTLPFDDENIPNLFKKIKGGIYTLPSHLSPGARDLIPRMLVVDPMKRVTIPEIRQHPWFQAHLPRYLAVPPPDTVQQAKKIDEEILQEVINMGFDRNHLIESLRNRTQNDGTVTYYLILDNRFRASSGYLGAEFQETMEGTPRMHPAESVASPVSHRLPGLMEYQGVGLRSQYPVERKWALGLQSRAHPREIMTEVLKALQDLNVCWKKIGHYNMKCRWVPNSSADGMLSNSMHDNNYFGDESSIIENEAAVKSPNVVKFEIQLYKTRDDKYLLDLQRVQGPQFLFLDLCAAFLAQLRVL
The assay can be described thus: two-hybrid; direct test by cotransformation of GAL4 DNA-binding domain and activation domain plasmids in yeast strain Y190; growth on medium lacking Leu, Trp and His with 25 mM 3-amino-triazole, 30°C, 3 days; lacZ activity.

For assay [2], the target named is T2, SnRK1.2/AKIN11 (Arabidopsis thaliana) (UniProt P92958).
T2 sequence: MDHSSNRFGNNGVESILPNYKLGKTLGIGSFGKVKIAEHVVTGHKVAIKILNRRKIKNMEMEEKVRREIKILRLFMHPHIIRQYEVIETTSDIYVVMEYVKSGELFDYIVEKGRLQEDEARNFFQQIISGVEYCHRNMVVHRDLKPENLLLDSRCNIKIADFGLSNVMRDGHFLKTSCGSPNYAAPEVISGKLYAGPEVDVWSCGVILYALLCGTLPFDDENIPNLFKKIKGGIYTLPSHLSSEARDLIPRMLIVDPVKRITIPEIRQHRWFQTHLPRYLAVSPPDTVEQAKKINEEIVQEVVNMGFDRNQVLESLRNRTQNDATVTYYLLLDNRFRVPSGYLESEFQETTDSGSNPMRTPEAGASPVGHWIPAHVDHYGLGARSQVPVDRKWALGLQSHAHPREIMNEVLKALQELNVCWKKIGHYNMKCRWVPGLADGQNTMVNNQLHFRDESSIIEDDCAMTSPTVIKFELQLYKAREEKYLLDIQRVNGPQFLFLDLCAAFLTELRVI
Described as above.

Assay [3] deals with T3, AKIN10-Venus^N (Arabidopsis thaliana) (UniProt Q38997).
T3 sequence: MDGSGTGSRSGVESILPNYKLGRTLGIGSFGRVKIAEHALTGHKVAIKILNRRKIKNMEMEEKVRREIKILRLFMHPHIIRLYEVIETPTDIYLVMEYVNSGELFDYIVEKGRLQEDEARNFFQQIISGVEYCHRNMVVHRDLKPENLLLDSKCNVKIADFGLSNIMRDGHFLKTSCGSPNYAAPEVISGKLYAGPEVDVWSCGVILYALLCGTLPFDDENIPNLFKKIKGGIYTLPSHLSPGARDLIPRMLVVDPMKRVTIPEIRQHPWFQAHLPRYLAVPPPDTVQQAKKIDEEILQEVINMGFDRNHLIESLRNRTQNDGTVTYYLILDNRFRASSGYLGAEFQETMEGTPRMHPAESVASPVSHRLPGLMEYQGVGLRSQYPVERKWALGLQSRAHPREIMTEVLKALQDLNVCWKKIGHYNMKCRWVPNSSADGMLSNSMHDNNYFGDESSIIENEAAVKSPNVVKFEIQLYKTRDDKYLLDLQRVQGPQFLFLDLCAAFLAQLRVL
The experiment in a line: split reporter; BiFC with Venus^N and Venus^C fusions under the CaMV35S promoter, transient expression in N. benthamiana leaves, confocal microscopy 48 h post infiltration.

Assay [4] concerns the target T4, AKIN11-Venus^N (Arabidopsis thaliana) (UniProt P92958).
T4 sequence: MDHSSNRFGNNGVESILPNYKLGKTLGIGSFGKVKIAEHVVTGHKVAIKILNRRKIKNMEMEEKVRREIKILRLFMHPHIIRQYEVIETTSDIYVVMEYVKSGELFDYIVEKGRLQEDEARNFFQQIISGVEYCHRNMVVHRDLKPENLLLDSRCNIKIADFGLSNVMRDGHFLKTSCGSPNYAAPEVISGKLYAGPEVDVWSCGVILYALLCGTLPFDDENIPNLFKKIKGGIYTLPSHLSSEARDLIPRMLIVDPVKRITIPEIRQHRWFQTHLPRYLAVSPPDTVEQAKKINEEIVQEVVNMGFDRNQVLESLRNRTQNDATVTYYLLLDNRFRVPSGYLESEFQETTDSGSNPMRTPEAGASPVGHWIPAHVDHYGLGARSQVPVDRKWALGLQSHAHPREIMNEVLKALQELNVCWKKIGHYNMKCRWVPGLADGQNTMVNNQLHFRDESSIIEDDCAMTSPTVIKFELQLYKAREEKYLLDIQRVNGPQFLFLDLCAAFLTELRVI
The description is as above.

Assay [5] addresses T5, SnRK1.1/AKIN10 (Arabidopsis thaliana), Q38997.
T5 chain: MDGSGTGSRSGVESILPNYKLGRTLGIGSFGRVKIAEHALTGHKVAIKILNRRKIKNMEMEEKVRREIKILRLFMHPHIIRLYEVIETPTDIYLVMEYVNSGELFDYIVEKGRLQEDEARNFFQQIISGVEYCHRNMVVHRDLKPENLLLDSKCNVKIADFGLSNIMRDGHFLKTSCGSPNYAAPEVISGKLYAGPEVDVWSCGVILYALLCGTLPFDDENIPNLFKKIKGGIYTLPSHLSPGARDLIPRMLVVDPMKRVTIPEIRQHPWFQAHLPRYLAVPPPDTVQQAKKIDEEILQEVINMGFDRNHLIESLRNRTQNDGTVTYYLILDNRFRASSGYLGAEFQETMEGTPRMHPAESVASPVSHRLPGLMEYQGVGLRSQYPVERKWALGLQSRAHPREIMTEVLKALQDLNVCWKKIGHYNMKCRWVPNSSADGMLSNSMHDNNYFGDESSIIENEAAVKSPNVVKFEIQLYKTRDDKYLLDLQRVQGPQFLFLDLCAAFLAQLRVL
The assay can be described thus: two-hybrid; direct test by cotransformation of GAL4 DNA-binding domain and activation domain plasmids in yeast strain Y190; growth on medium lacking Leu, Trp and His with 25 mM 3-amino-triazole, 30°C, 3 days; lacZ activity. The note with it: remark: other sources report otherwise.

These are yes or no findings as the source states them, for the method shown. For some of these results: In cells and extracts the contact can be indirect. Some binding calls cover weakened binding; strength is not graded here.

B1: DUF581-18 (protein, UniProt Q9LV75 1-113)
chain: MVLGKRHGSLIKRTTSMKMITLDTPTIYDASQPSDHLTFHQHPHNPMVVMASNYDDFLKTCSLCNRSLCHHRDIYMYRGNNAFCSLECREKQIKLDEKKAKTGFVTSKKPIRI
As to B1, the binding entry in assay [1] and in assay [2] was “binds” each time.

B2: DUF581-18-Venus^C (protein, UniProt Q9LV75 1-113)
chain: MVLGKRHGSLIKRTTSMKMITLDTPTIYDASQPSDHLTFHQHPHNPMVVMASNYDDFLKTCSLCNRSLCHHRDIYMYRGNNAFCSLECREKQIKLDEKKAKTGFVTSKKPIRI
Take B2: the binding entry in assay [3] and in assay [4] was “binds” throughout.

B3: DUF581-19 (protein, UniProt Q8LGS1 1-263)
chain: MLRNKPRAAVTTKKQTSLLMADQPPPPKPNTCHCSPSLFSSPKFRFFTSKMMMTPFDSDFSLVSPTSILEANPSIFSSKNPKPVSYFEPTIPNPQRFHSPDVFGLADLVKDGDSNRDHSRKPVNKMVLFGSKLRVQIPSSADFGTKTGIRYPPCQLSPCVQTKVLAVSEIDQTEDYTRVISHGPNPTITHIFDNSVFVEATPCSVPLPQPAMETKSTESFLSRCFTCKKNLDQKQDIYIYRGEKGFCSSECRYQEMLLDQMET
On to B3, for which the binding entry in assay [1] and in assay [2] was “binds” each time.

B4: DUF581-9 (protein, UniProt O80506 1-93)
chain: MASYYSGFLGCEEPHFLESCSLCRKHLGLNSDIFMYRGDKAFCSNECREEQIESDEAKERKWKKSSRSLRKNSSETKESAAGNTVRTGTLVVA
For the molecule B4, the binding entry in assay [1] and in assay [2] was “binds” in each case.

B5: DUF581-9C47S (protein, UniProt O80506 1-93)
chain: MASYYSGFLGCEEPHFLESCSLCRKHLGLNSDIFMYRGDKAFCSNESREEQIESDEAKERKWKKSSRSLRKNSSETKESAAGNTVRTGTLVVA
Turning to B5, the binding entry in assay [2] was “no binding”.

B6: DUF581-9C47S, O80506 1-93 (protein)
chain: MASYYSGFLGCEEPHFLESCSLCRKHLGLNSDIFMYRGDKAFCSNESREEQIESDEAKERKWKKSSRSLRKNSSETKESAAGNTVRTGTLVVA
As for B6, the binding entry in assay [5] is on record as “no binding”.
